The supplement of paper PMC10126150
Sequences with one replicate were seen in a single cluster, so their values are uncertain.

Test system: ATP
Assay: switch fluorescence ratio, 500 uM ATP over buffer (Cy3 cluster intensity, sum of 5 cycles each) (fold (ratio)); higher = stronger signal-on switching upon ATP binding; sequences stand for … in TCGTCGGCAGCGTCAGATGTGTATAAGAGACAGTTTTTTTTTTTTTTTTTTTTTTTTT…TC
Details: aptamer strand: ATP DNA aptamer (quencher-CACCTGGGGGAGTATTGCGGAGGAAGG + anchor), 100 nM annealed; ATP concentration: 500 uM; one replicate
In short: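 Imaging in selection buffer was followed by imaging after 15 min with 500 uM ATP at 22 °C, for Cy3-labelled switching-strand clusters annealed to 100 nM quencher-labelled ATP aptamer on a modified Illumina MiSeq flow-cell. Five of these buffer/ATP cycles ran, separated by NaOH stripping and re-annealing. The fluorescence ratio per cluster is summed target-cycle over summed buffer-cycle Cy3 intensity, averaged per switch-domain sequence; clusters outside 100-1000 RFU were removed.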
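Note: ATP exposure 15 min at 22 °C before imaging.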

## TTATAATAGA
  switch fluorescence ratio: 1.04

## TGAGTAATT
  switch fluorescence ratio: 1.01

## TGGTGTGCGC
  switch fluorescence ratio: 0.966

## CGTAGTGGG
  switch fluorescence ratio: 0.984

## AAATATCAAC
  switch fluorescence ratio: 1.01

## AATGTTTTAA
  switch fluorescence ratio: 0.992

## ACGGATGGTG
  switch fluorescence ratio: 1

## TATGCGATCG
  switch fluorescence ratio: 0.969

## TGTCGCGGCA
  switch fluorescence ratio: 1

## GCTAGGATGT
  switch fluorescence ratio: 1.03

## GCCGCACAGC
  switch fluorescence ratio: 1.91

## GTTCGGACTT
  switch fluorescence ratio: 1.03

## GGAAGACCAC
  switch fluorescence ratio: 1.07

## GTAACGCGCT
  switch fluorescence ratio: 1

## AGAGGAAGCC
  switch fluorescence ratio: 0.941

## CAGTTCCGTC
  switch fluorescence ratio: 1.05

## GATACTTGTT
  switch fluorescence ratio: 0.96

## CTATGGGTCT
  switch fluorescence ratio: 0.972

## ATCTGGGCCA
  switch fluorescence ratio: 0.995

## GGTAATTGAG
  switch fluorescence ratio: 0.958

## TCAACGGGAG
  switch fluorescence ratio: 0.999

## CCCCTGGGGG
  switch fluorescence ratio: 1.01

## AGCGAGGCTC
  switch fluorescence ratio: 1.18

## GCGTTACCCT
  switch fluorescence ratio: 0.998

## TTGTGACAGG
  switch fluorescence ratio: 0.952

## CCTATTGCCA
  switch fluorescence ratio: 1.09

## GCACTATAGT
  switch fluorescence ratio: 1.06

## TTGAGGGCT
  switch fluorescence ratio: 1.03

## TAATTTCCAC
  switch fluorescence ratio: 1.05

## GCCTGCTCGG
  switch fluorescence ratio: 1

## TCCGGATCGA
  switch fluorescence ratio: 1.04

## ACGGGAAAGC
  switch fluorescence ratio: 1.03

## AGAAGTTTAA
  switch fluorescence ratio: 0.925

## GCATTGAAAC
  switch fluorescence ratio: 0.945

## TTGTTCACGG
  switch fluorescence ratio: 1.01

## GACTGAGATA
  switch fluorescence ratio: 1.04

## TAGATCATCA
  switch fluorescence ratio: 1

## GGCGGGTTTG
  switch fluorescence ratio: 1.06

## GACTTTCCGA
  switch fluorescence ratio: 1.75

## GGCATTTGAT
  switch fluorescence ratio: 1.02

## CAGGTTATT
  switch fluorescence ratio: 0.945

## ACAAGTAGCG
  switch fluorescence ratio: 0.955

## CAATTAACCT
  switch fluorescence ratio: 1.74

## AACGGGCGAT
  switch fluorescence ratio: 0.977

## TTGCTCTGGC
  switch fluorescence ratio: 0.896

## TAAAAAGTGT
  switch fluorescence ratio: 1.02

## TAGACTGATT
  switch fluorescence ratio: 1

## ACCAGCACCC
  switch fluorescence ratio: 1.29

## GACGAATTGT
  switch fluorescence ratio: 1

## TATCGACGCC
  switch fluorescence ratio: 1.58

## TCGCTTCGTG
  switch fluorescence ratio: 0.98

## AAGGCGTT
  switch fluorescence ratio: 1.01

## TGAGCTCAC
  switch fluorescence ratio: 1.05

## AGTGGAAAT
  switch fluorescence ratio: 1.08

## CTATGGGGAC
  switch fluorescence ratio: 1

## CATAGGGTCG
  switch fluorescence ratio: 0.968

## GGGCGCGGCA
  switch fluorescence ratio: 1.01

## TAGATTAGC
  switch fluorescence ratio: 0.962

## GGAAGATGAA
  switch fluorescence ratio: 1.01

## AGGGTGCTGG
  switch fluorescence ratio: 0.977

## TACTGGGCGC
  switch fluorescence ratio: 0.981

## CTTTAATCGC
  switch fluorescence ratio: 1.02

## GGTGCTTTA
  switch fluorescence ratio: 1.01

## GACCGGGCGT
  switch fluorescence ratio: 0.994

## TAACCTAATT
  switch fluorescence ratio: 0.979

## GACTAACACA
  switch fluorescence ratio: 1.21

## TCCGGAGACA
  switch fluorescence ratio: 3.2

## ATGGTGGAAG
  switch fluorescence ratio: 1.41

## TGAGCAACA
  switch fluorescence ratio: 1.02

## TTCCTTATTG
  switch fluorescence ratio: 0.964

## CCGACAGGAT
  switch fluorescence ratio: 4.16

## GCAAGAGTAA
  switch fluorescence ratio: 0.971

## ACCTCATGTG
  switch fluorescence ratio: 1.29

## GTTGAAAGGC
  switch fluorescence ratio: 1.04

## TGGCCGCTAG
  switch fluorescence ratio: 1.06

## AAGGCATGGC
  switch fluorescence ratio: 0.922

## ATGCCATCGT
  switch fluorescence ratio: 0.954

## GGTCGCTGTG
  switch fluorescence ratio: 1.14

## AGGCTCGTCC
  switch fluorescence ratio: 1.01

## TGAAAGTAAT
  switch fluorescence ratio: 1.02

## ACTGATTGGA
  switch fluorescence ratio: 1.07

## ATGGTTCTAA
  switch fluorescence ratio: 0.989

## GAATATAGTC
  switch fluorescence ratio: 1.05

## ACTCATAGCC
  switch fluorescence ratio: 1.07

## CGTGTCGGCA
  switch fluorescence ratio: 1.01

## AATCCGGGAT
  switch fluorescence ratio: 1.01

## GGCAAAACGA
  switch fluorescence ratio: 1.1

## GACGATGTAT
  switch fluorescence ratio: 1.09

## GACGACCGTT
  switch fluorescence ratio: 1.2

## TGCACTAAAG
  switch fluorescence ratio: 1.02

## TTATTGTTTC
  switch fluorescence ratio: 1.06

## CACTAAAGTT
  switch fluorescence ratio: 0.993

## ATTGGGATC
  switch fluorescence ratio: 1.06

## TATGCCCGA
  switch fluorescence ratio: 0.966

## TACAACAAAA
  switch fluorescence ratio: 1.07

## GACTAATTGA
  switch fluorescence ratio: 0.96

## AACGCGTCGA
  switch fluorescence ratio: 1.09

## CCACCAAACA
  switch fluorescence ratio: 1.18

## ATTTCGCTG
  switch fluorescence ratio: 1.03

## GTCGTATTGA
  switch fluorescence ratio: 1.02

## TCATACACCT
  switch fluorescence ratio: 1.22

## ACGGGACTGC
  switch fluorescence ratio: 1.38

## GAGGAGAATG
  switch fluorescence ratio: 0.981

## ACTAAGACGT
  switch fluorescence ratio: 1.04

## GTTACTCCTT
  switch fluorescence ratio: 1.09

## CCTGTTCGGG
  switch fluorescence ratio: 0.981

## AGTACATAGA
  switch fluorescence ratio: 1.04

## CCGTGAATGG
  switch fluorescence ratio: 2.43

## GGTGGCGTAA
  switch fluorescence ratio: 0.997

## CAGTGGGCCT
  switch fluorescence ratio: 0.98

## ATCCTTTGCA
  switch fluorescence ratio: 1.35

## GACGATATAC
  switch fluorescence ratio: 4.06

## GAGGCTTTAA
  switch fluorescence ratio: 0.998

## AGGGTAAATG
  switch fluorescence ratio: 1.05

## AAAACATCG
  switch fluorescence ratio: 1.02

## TCCTGGGATC
  switch fluorescence ratio: 1.02

## TCAAACATG
  switch fluorescence ratio: 1.01

## ATTAGATCTA
  switch fluorescence ratio: 0.98

## ATGAAATGTC
  switch fluorescence ratio: 1.48

## CGTTTACTG
  switch fluorescence ratio: 0.987

## CTAGATGTGT
  switch fluorescence ratio: 1.04

## GGCGATCGT
  switch fluorescence ratio: 0.981

## ATGGGGTGCC
  switch fluorescence ratio: 1.01

## TAAGAGCTAC
  switch fluorescence ratio: 1.17

## TCGTTTTTAA
  switch fluorescence ratio: 0.998

## GCATAGCGTT
  switch fluorescence ratio: 0.995

## GGAGTGCATT
  switch fluorescence ratio: 0.969

## ATAAAACGGT
  switch fluorescence ratio: 1.02

## GCAACACAAG
  switch fluorescence ratio: 1.05

## TGTAGGTATA
  switch fluorescence ratio: 0.984

## TTGCCACTCG
  switch fluorescence ratio: 1.02

## CGGCTGGTTG
  switch fluorescence ratio: 0.966

## ATAGTTTTCA
  switch fluorescence ratio: 1

## CCAATTTCGG
  switch fluorescence ratio: 0.99

## GAACAGATTG
  switch fluorescence ratio: 0.988

## ACGGCAAATT
  switch fluorescence ratio: 1.08

## GGCAGGGGAG
  switch fluorescence ratio: 1.02

## ACGGGTGTGG
  switch fluorescence ratio: 1.05

## CTGCGCCTCC
  switch fluorescence ratio: 2.38

## GTTTTTTCT
  switch fluorescence ratio: 0.972

## GTCGGACGAG
  switch fluorescence ratio: 1.01

## AATCCGTTGT
  switch fluorescence ratio: 1.02

## CCATCTATGC
  switch fluorescence ratio: 1.24

## CCGGGCGGCG
  switch fluorescence ratio: 0.991

## TTGCCAGATA
  switch fluorescence ratio: 0.972

## CGAAGTCATT
  switch fluorescence ratio: 1.06

## AATGATGGTT
  switch fluorescence ratio: 1.02

## CAAGTTGGGG
  switch fluorescence ratio: 0.981

## AGTTAACCAG
  switch fluorescence ratio: 1.01

## GGCAGTGGAA
  switch fluorescence ratio: 0.944

## AATCCCGGTG
  switch fluorescence ratio: 1.01

## CGGCCCTTGG
  switch fluorescence ratio: 1.04

## GGGACGAGCA
  switch fluorescence ratio: 1.14

## GGGTTTTGAG
  switch fluorescence ratio: 0.985

## AGCATCTAGG
  switch fluorescence ratio: 0.949

## TTGAAGAGCT
  switch fluorescence ratio: 0.934

## CTTAAATCCC
  switch fluorescence ratio: 0.965

## TATCGGTACT
  switch fluorescence ratio: 1.07

## TGCGTGGATG
  switch fluorescence ratio: 1.02

## AGTCTACTTG
  switch fluorescence ratio: 0.991

## GTTGGAACGT
  switch fluorescence ratio: 0.961

## AAAGTTCTTA
  switch fluorescence ratio: 0.956

## CTTGAAGCAT
  switch fluorescence ratio: 1.09

## TTCAGTAGGG
  switch fluorescence ratio: 1.02

## GTTTGAAACG
  switch fluorescence ratio: 0.983

## ACTGTTCTCT
  switch fluorescence ratio: 0.995

## GGAGAACGGG
  switch fluorescence ratio: 0.977

## GGTGTTT
  switch fluorescence ratio: 1.06

## TGCTGGTT
  switch fluorescence ratio: 1

## AGAGATCCTG
  switch fluorescence ratio: 1.02

## GTGCTTTGGC
  switch fluorescence ratio: 0.992

## AAACAGTGAG
  switch fluorescence ratio: 1.01

## TGCGAGGAGG
  switch fluorescence ratio: 1.02

## TTCTTCGTTT
  switch fluorescence ratio: 0.969

## CAAATACTCT
  switch fluorescence ratio: 1.17

## GTGTTGATAC
  switch fluorescence ratio: 1.09

## TTGCACATTC
  switch fluorescence ratio: 1.11

## TCACAGAATC
  switch fluorescence ratio: 1.06

## ATCATAATGC
  switch fluorescence ratio: 1.04

## GGATAGCTTG
  switch fluorescence ratio: 1.01

## TACCATTTTC
  switch fluorescence ratio: 0.979

## TCACCTGA
  switch fluorescence ratio: 0.977

## GAAAAATGTG
  switch fluorescence ratio: 0.996

## GTATTGTCGC
  switch fluorescence ratio: 1.09

## TCGACAGGGC
  switch fluorescence ratio: 1.03

## CGCTACCGCA
  switch fluorescence ratio: 1.16

## GTATACCGTG
  switch fluorescence ratio: 0.966

## CGGGTCACAC
  switch fluorescence ratio: 1.23

## TCGCGGAATC
  switch fluorescence ratio: 1.18

## ATGTGTGTCT
  switch fluorescence ratio: 0.986

## TTACATCGTT
  switch fluorescence ratio: 0.992

## GTTTTTTCCA
  switch fluorescence ratio: 1.05

## TTCAGCTCCA
  switch fluorescence ratio: 1.01

## TATCACGCAG
  switch fluorescence ratio: 1.05

## TCGCCGTTAG
  switch fluorescence ratio: 0.929

## CTTATGTCAG
  switch fluorescence ratio: 0.924

## CCTTGATACA
  switch fluorescence ratio: 1.04

## ATTTCGACGA
  switch fluorescence ratio: 1.04

## CTTCACTGGA
  switch fluorescence ratio: 1.24

## GCCAGCCTTG
  switch fluorescence ratio: 0.997

## ATCGGTAACG
  switch fluorescence ratio: 0.982
